Measured values taken from PMC4336329 (PLoS ONE, 2015).
The campaign covered roughly 310,000 compounds. About 2,200 (0.71%) showed an effect of 50% or more. Effects have a minus sign here. Some of the results follow.

Biological target: human ether-à-go-go-related gene (hERG) potassium channel (human, UniProt Q12809)
Assay: primary screen, population patch clamp on CHO cells stably expressing hERG

human ether-à-go-go-related gene (hERG) potassium channel, sequence (Q12809 whole entry, looked up): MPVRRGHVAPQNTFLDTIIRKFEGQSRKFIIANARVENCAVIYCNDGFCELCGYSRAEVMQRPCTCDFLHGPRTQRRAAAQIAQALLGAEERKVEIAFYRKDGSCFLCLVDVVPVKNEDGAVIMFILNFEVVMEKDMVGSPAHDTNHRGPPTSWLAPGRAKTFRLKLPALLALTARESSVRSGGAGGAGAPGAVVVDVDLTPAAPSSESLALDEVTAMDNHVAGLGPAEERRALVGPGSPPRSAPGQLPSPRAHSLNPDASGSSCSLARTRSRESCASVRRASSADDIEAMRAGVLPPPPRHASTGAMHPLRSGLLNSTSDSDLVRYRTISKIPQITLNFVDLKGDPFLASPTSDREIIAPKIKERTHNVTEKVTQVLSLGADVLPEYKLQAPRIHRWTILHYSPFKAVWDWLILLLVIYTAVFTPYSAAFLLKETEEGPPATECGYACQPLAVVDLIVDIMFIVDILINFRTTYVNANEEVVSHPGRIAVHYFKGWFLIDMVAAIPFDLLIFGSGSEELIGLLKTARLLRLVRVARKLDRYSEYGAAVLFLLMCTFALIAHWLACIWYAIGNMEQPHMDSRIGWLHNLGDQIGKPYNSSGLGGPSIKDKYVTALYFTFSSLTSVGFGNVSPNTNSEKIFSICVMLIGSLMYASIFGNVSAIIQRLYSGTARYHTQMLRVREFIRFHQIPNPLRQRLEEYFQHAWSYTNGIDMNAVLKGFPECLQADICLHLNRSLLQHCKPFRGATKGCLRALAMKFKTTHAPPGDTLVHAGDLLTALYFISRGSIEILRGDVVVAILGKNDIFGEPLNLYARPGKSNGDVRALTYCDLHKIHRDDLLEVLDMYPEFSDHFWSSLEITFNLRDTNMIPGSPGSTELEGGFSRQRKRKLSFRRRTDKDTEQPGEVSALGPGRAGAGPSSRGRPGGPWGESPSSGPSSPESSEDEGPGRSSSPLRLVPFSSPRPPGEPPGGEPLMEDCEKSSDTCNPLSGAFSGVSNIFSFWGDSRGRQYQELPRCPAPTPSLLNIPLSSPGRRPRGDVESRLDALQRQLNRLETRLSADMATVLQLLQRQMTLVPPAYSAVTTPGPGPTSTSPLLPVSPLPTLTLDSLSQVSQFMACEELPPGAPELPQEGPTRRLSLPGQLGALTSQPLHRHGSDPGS

| SMILES | hERG current change (%, negative = inhibition) at 1uM [%] |
| --- | --- |
| CCN(CC)c1ccc(NC(=O)C2=CC=CN3CCS(=O)(=O)N=C23)cc1 | 13.4 |
| CCOC(=O)c1c(C)oc2c1cc(O)c1ccccc12 | 4.59 |
| CC12CC3CC(C)(C1)CC(Nc1nc(N4CCOCC4)nc4ccccc14)(C3)C2 | 11.2 |
| COc1cccc2cc(/C(=N/O)c3ccccc3)oc12 | -16.4 |
| CCOC(=O)Cn1cnc2scc(-c3ccccc3)c2c1=O | 12 |
| Cc1ccc(S(=O)(=O)NC(CC(=O)O)c2ccccc2)cc1 (centres unmarked) | 14 |
| OCCNc1nc2nonc2nc1NCCO | 8.87 |
| Cc1ccc(C(=O)Nc2cccc(NC(=O)c3ccc(C)c([N+](=O)[O-])c3)n2)cc1[N+](=O)[O-] | 13.2 |
| CCOC(=O)/C=C1\SCC(=O)N1Cc1nnc(-c2ccccc2Br)o1 | 6.69 |
| O=C(CSc1nnc(CNC(=O)c2cccc(C(F)(F)F)c2)o1)NCC1CCCO1 (centres unmarked) | 14.7 |
| O=C(NCc1ccccc1F)C1CCCN1C(=O)Nc1ccccc1 (centres unmarked) | 8.87 |
| CCOc1ncccc1C(=O)Nc1cc(C(F)(F)F)ccc1N1CCOCC1 | 7.4 |
| COCCN(C(=O)CSc1nnc(Nc2ccc(C)cc2)s1)c1c(N)n(CC(C)C)c(=O)[nH]c1=O | -2.82 |
| CCOc1ccc(S(=O)(=O)Nc2ccc(C(=O)N/N=C(\C)c3ccc(-n4ccnc4)cc3)cc2)cc1 | 1.26 |
| COC(=O)C1=C(c2c(C)noc2C)C[C@@H]2CC[C@H]1N2C(=O)NC(C)C | 7.13 |
| O=C(Nc1c(Cl)ccc2nsnc12)c1ccc([N+](=O)[O-])o1 | 8.79 |
| COc1ccc(C(=O)C2CCCN(Cc3cn(C)nc3-c3ccccc3)C2)cc1F (centres unmarked) | -19.1 |
| CCOC(=O)CSc1nc2ccsc2c(=O)n1C1CCN(C(=O)OCC)CC1 | -4.96 |
| COc1ccc(NC(=O)c2ccc(Cl)nc2)cc1S(=O)(=O)N1CCCCC1 | -36.4 |
| COc1ccccc1NS(=O)(=O)c1ccc(NC(=O)c2nc3nc(C)cc(C(F)F)n3n2)cc1 | 5.18 |
| Cc1ccc(C)c(NC(=O)C2CCCN(S(=O)(=O)c3ccc4[nH]c(=O)ccc4c3)C2)c1 (centres unmarked) | 5.83 |
| CCOC(=O)C1=C(C)NC(=O)NC1c1ccc(OCC(=O)N2CCCCC2)cc1 (centres unmarked) | 13.3 |
| CC(C)(C)NS(=O)(=O)c1ccc(OCC(=O)NCc2ccco2)cc1 | 10.4 |
